This passage reports binding results from PMC2991254.

Protein sequences, listed by entry. Tags and fused reporters are not part of them.
UniProt P29384: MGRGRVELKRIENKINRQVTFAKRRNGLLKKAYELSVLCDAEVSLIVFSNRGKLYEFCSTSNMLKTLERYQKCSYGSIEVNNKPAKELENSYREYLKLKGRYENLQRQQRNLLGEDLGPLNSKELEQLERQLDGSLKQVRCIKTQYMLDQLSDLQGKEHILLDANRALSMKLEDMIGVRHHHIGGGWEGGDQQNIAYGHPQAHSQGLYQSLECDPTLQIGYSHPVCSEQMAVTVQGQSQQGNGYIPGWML
UniProt O82743: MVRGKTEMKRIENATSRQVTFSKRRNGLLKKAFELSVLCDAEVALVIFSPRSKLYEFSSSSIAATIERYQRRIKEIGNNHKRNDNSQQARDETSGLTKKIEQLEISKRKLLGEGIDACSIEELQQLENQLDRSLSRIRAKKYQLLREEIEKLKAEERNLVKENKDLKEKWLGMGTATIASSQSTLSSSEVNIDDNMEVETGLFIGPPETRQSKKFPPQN
UniProt Q38836: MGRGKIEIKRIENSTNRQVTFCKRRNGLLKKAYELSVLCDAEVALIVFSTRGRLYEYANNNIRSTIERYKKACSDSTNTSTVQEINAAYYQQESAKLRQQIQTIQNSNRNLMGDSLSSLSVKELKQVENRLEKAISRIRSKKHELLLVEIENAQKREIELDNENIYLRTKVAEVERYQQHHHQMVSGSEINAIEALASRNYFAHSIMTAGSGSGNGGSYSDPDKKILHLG
UniProt P35631: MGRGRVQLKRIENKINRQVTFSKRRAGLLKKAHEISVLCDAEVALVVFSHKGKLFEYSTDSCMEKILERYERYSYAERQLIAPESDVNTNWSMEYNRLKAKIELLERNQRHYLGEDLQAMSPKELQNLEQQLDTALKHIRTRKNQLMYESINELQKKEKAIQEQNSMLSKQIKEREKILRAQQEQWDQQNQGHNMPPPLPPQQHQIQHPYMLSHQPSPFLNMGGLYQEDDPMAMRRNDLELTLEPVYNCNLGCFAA
UniProt Q9S7Q7: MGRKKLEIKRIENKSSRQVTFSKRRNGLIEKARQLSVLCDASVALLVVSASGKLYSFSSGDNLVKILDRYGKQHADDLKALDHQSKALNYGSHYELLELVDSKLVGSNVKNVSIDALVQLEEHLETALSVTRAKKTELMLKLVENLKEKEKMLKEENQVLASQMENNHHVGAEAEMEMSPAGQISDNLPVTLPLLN
UniProt Q9FPN7: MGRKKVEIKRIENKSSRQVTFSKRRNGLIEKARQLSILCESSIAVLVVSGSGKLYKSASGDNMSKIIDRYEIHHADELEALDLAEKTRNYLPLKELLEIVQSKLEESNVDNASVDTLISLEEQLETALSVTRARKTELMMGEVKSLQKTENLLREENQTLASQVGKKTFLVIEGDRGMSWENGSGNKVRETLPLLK
UniProt P29382: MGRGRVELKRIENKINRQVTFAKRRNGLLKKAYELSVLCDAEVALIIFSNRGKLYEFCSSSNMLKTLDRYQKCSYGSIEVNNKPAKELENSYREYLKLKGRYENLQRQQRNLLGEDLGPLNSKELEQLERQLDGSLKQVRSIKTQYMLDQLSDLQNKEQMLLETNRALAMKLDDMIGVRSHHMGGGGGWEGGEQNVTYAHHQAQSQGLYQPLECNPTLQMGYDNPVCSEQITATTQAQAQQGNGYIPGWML
UniProt P17839: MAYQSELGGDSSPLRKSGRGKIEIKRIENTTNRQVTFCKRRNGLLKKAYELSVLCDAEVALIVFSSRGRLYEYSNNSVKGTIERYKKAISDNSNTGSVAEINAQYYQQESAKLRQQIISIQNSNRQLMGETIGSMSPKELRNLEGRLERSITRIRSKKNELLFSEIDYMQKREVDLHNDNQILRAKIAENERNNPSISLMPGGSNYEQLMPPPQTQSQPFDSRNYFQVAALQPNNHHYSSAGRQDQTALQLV

Results are given in words; binding and its absence hold for the method and conditions named. Some results given as binding are weak or reduced against the parent protein; the word gives no strength.

Holding throughout (test): two-hybrid; matrix-based yeast two-hybrid, GAL4-AD and GAL4-BD fusions (pDEST22, pDEST32), in duplicate, at least two reporter genes; medium lacking Leu, Trp and His with 1 mM 3-amino-1,2,4-triazole, growth scored after 4 days at 20°C
Assay [1] has as its target SEP2 (Arabidopsis thaliana) (UniProt P29384).
Assay [2] concerns the target AGL19 (Arabidopsis thaliana) (UniProt O82743).
The next assay addresses … (Arabidopsis thaliana) (UniProt Q38836).
Assay [3] concerns the target APETALA1 (Arabidopsis thaliana) (UniProt P35631).
In assay [4] the target is FLOWERING LOCUS C (Arabidopsis thaliana) (UniProt Q9S7Q7).
For assay [5], the target named is T1, AGL71 (Arabidopsis thaliana) (UniProt Q9LT93).
T1 sequence: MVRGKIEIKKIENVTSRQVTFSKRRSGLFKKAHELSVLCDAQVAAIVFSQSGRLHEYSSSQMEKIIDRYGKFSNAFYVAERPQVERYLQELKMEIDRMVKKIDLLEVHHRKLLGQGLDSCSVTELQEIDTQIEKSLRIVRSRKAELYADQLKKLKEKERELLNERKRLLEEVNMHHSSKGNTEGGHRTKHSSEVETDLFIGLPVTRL

In assay [6] the target is MADS … FLOWERING 2 (Arabidopsis thaliana) (UniProt Q9FPN7).
The target of assay [7] is SEP1 (Arabidopsis thaliana) (UniProt P29382).
The target of assay [8] is AGAMOUS (Arabidopsis thaliana) (UniProt P17839).
Assay [9] has as its target AGAMOUS-LIKE24 (Arabidopsis thaliana) (UniProt O82794).
Assay [10] has as its target T2, AGL15 (Arabidopsis thaliana) (UniProt Q38847).
T2 sequence: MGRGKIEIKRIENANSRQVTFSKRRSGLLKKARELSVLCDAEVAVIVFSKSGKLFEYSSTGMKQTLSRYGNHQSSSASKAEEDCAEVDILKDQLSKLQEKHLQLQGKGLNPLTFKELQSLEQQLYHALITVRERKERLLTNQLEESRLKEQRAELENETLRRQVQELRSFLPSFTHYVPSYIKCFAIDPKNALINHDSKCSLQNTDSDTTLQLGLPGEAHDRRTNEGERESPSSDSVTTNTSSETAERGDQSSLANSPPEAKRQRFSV

B1: AGL24 R61S (protein, UniProt O82794 1-220)
chain: MAREKIRIKKIDNITARQVTFSKRRRGIFKKADELSVLCDADVALIIFSATGKLFEFSSSSMRDILGRYSLHASNINKLMDPPSTHLRLENCNLSRLSKEVEDKTKQLRKLRGEDLDGLNLEELQRLEKLLESGLSRVSEKKGECVMSQIFSLEKRGSELVDENKRLRDKLETLERAKLTTLKEALETESVTTNVSSYDSGTPLEDDSDTSLKLGLPSWE
As for B1, the binding result in [1] is recorded as “binds”; in assay [2], “no binding”; with … (Arabidopsis thaliana), “binds”; in assay [3], “binds”; in assay [4], “no binding”; in assay [5], “no binding”. In addition, the binding result in assay [6] was “binds”; in assay [7], “binds”; in assay [8], “binds”; in assay [9] it was “binds”; in assay [10], “no binding”.

B2: AGAMOUS-LIKE24 (protein, UniProt O82794 1-220)
chain: MAREKIRIKKIDNITARQVTFSKRRRGIFKKADELSVLCDADVALIIFSATGKLFEFSSSRMRDILGRYSLHASNINKLMDPPSTHLRLENCNLSRLSKEVEDKTKQLRKLRGEDLDGLNLEELQRLEKLLESGLSRVSEKKGECVMSQIFSLEKRGSELVDENKRLRDKLETLERAKLTTLKEALETESVTTNVSSYDSGTPLEDDSDTSLKLGLPSWE
B2: the binding result in assay [1] is recorded as “no binding”; in [2], “no binding”; with … (Arabidopsis thaliana), “no binding”; in assay [3], “binds”; in [4] it was “no binding”; in assay [5] it was “no binding”. The binding result is reported as “no binding” in [6] and “binds” in [7].
